Results reported in publication PMC8233286.
Numbering of substitutions follows the chain as printed. No constants are given. Whether binding was seen depends on the method and setting. Binding seen in cells or lysates may run through a third protein. Some binding calls cover weakened binding; strength is not graded here. For part of these data: Tags and fused reporters may be left off the sequences shown.

Sequences of proteins named here, by UniProt entry; tags and fusion partners are left off. Residues count along the entry.
UniProt P78536, residues 215-824: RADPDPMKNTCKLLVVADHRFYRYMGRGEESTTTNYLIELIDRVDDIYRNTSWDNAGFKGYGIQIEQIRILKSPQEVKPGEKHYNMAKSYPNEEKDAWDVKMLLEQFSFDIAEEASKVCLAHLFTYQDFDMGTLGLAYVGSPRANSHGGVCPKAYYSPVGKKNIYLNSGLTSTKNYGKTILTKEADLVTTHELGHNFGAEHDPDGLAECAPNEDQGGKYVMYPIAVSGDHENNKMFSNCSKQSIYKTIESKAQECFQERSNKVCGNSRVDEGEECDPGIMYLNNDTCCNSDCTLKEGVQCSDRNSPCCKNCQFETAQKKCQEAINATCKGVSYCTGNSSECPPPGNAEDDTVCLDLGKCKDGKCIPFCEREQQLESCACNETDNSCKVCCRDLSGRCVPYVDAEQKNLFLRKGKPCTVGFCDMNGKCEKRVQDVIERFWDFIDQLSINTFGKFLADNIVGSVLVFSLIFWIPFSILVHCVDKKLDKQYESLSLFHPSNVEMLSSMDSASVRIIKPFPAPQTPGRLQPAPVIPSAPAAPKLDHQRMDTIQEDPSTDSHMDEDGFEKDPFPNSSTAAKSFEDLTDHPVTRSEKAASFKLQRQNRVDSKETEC

Tests used:
Assay in all cases: co-IP; HA-tagged iRhom construct as bait, anti-HA magnetic beads, cleared lysate of stably expressing HEK293 cells (50 mM Tris, 137 mM NaCl, 2 mM EDTA, 10 mM 1,10-phenanthroline, pH 7.5), 90 min, five washes; endogenous ADAM17 detected by western blot; also after cycloheximide treatment (pulse chase)
[1] = biological target: T1, murine wt_iRhom2 (wild-type) construct with 3xHA tag, in HEK293 cells (mouse) (UniProt Q80WQ6)
T1 sequence: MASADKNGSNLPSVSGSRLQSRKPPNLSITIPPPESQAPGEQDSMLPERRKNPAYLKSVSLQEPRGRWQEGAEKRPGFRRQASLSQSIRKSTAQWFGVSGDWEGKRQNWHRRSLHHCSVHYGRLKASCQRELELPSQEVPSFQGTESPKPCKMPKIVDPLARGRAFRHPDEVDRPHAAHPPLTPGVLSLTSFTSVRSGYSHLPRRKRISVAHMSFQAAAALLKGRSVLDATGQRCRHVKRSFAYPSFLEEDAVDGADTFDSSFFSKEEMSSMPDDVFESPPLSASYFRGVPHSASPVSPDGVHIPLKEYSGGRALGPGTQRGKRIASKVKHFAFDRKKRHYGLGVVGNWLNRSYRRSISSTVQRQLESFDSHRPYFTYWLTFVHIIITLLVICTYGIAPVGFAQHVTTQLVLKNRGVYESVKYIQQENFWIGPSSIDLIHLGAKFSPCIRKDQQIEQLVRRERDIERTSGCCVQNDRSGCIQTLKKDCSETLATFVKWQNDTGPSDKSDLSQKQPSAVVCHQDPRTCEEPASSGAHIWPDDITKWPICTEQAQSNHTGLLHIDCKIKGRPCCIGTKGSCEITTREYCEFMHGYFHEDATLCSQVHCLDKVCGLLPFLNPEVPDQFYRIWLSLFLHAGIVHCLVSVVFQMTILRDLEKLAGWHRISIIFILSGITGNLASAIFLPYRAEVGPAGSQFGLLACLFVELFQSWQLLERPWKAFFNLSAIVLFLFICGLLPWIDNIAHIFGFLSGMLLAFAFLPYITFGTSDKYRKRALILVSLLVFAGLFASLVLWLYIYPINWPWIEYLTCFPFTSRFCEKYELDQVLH

[2] = biological target: T2, miR2_W545S (murine iRhom2 with W545S in iCERES) (mouse) (UniProt Q80WQ6)
T2 sequence: T1 sequence with W545S

[3] = biological target: T3, miR2_L438P (murine iRhom2 with L438P in the first helix of the IRHD) (mouse) (UniProt Q80WQ6)
T3 sequence: T1 sequence with L438P

binding [1]: binds
binding [2]: binds
binding [3]: no binding
Substance: mature ADAM17 (mADAM17), endogenous in HEK293 cells (from UniProt P78536 215-824) (enzyme)
